For one molecule, Kd results are on record in article PMC3458052, “Single Amino Acid Substitutions in the Chemotactic Sequence of Urokinase Receptor Modulate Cell Migration and Invasion” (PLoS ONE, 2012).

The target of the experiment is T1, vitronectin (UniProt P04004 20-478, ^125I (radio-iodinated with Na^125I using IODO-BEADS) on the tracer; the competitor is unlabeled).
T1 construct: vitronectin (Vn), bought from Promega; also called Vn; ^125I-Vn; source: bought: Promega
T1 sequence (looked up): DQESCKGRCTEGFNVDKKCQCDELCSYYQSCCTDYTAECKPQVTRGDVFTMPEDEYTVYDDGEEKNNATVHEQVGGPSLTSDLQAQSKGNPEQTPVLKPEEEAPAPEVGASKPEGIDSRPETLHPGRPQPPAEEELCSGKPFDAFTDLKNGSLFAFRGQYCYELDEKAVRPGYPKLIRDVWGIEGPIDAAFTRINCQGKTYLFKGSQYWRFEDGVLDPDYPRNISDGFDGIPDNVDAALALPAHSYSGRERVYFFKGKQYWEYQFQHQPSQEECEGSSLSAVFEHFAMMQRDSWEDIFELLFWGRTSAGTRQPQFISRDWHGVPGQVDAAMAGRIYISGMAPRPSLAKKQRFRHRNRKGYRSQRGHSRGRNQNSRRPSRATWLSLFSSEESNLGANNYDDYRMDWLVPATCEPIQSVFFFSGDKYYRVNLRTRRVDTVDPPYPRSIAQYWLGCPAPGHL
As to the kind of experiment: radioligand binding; 10 nM ^125I-Vn with increasing unlabeled Vn on adherent transfected 293 clones (2×10^5 cells/well), 3 hours at 4°C, binding buffer DMEM, 1 mg/ml BSA, 10 mM Hepes pH 7.4; surface-bound label recovered by acid wash pH 3.0; apparent Kd; cells also carry endogenous αvβ5. The conditions noted are these: one partner purified.

B1: receptor for urokinase-type plasminogen activator (uPAR), wild type (receptor)
chain: not shown
notes: human uPAR, whole uPAR cDNA in pcDNA3, membrane-associated (GPI-anchored) on 293 cells; also called uPAR^wt; source: on intact adherent cells and in RIPA lysate
As for B1, the Kd was around 10 nM.
